From the supplement of paper PMC11417369
± gives the standard deviation of the averaged measurements. The list shows a part of the results.

system: PfAP2-LT AP2 domain (GST-tagged); assay: gcPBM binding intensity (ln(normalized median fluorescence intensity)); higher = stronger DNA binding
Method in brief: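 Binding intensity is defined as the maximum Masliner-normalised natural-log median intensity across replicate spots for either probe orientation. It was measured on an Agilent 4 × 180k array of primer-extended double-stranded 36-bp intergenic genomic probes and negative controls, to which GST-tagged P. falciparum DNA-binding domains made in E. coli were applied for 1 h in 1× PBS with 1% milk, 0.2 mg/ml BSA, 0.5% salmon testes DNA and 0.03% Triton X-100. Detection was by Alexa488 anti-GST antibody and scanning at 488 nm.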

Row | Sequence | gcPBM binding intensity (ln)
1 | TTTTCAATATATATATGCTGAATTTATAATTTGTAT [CACACA_negctrl_site1774] | 8.68 ± 0.49
2 | ATATTGATTTGTGGCACACATATAATATATTCCTAT [CACACA_site3046] | 8.95 ± 0.51
3 | TTTTATTTTTGTTGGTCCCTCATTTAAGTTAATAAA [TGCATGCA_negctrl_site465] | 8.45 ± 0.63
4 | TGAATAATAAAAAATACACACACATATATATATATT [CACACA_site9146] | 9.39 ± 0.24
5 | ACCATATAAAGTTAGGTGCATTTGTATGTATCTTAC | 8.87 ± 0.37
6 | TCTTGTTCGCCCTATTGTACAAACATATATTGTGAT [XGTACX_site2884] | 9 ± 0.48
7 | TTATTTTGATCTGGTTGTACATATAATATATAGTGG [XGTACX_site357] | 8.76 ± 0.33
8 | AAAAGAGAAATGGGCACACACACACCCATTATATAT [CACACA_site1530] | 9.57 ± 0.26
9 | ATATATACATACATATGTACATATGTAGATATATTT [XGTACX_site1230] | 9.03 ± 0.27
10 | ATTTTTTTTGTTTATTCTTATGTGGTTATTAAATTA [CACACA_negctrl_site1000] | 8.72 ± 0.52
11 | TACGTTTTAAAACACACACACAAAAAAAAAAAAAAA [CACACA_site3876] | 9.04 ± 0.4
12 | ATTATGAAATATCGTGCACACACGAATAATATAAGA [CACACA_site1294] | 9.15 ± 0.27
13 | TATTTGTTTAAATTCACACACGTATATATATTTATA [CACACA_site5651] | 9.02 ± 0.38
14 | TTTTTTTTGATAAGTTGTACAATGATATATATCCCT [XGTACX_site3560] | 8.77 ± 0.51
15 | TATATTTTATATTGGTGTACAATTTTTTTTTTTTTT [XGTACX_site4291] | 8.53 ± 0.59
16 | ATAGTTTAATTTATATGTACATATAATATTGATTTG [XGTACX_site7520] | 8.83 ± 0.44
17 | ACCCTATCTGTAACTACACACCGCATATTGTTTACT [CACACA_site5661] | 9.43 ± 0.4
18 | ATAAATGACAGACACACACACAAAAAAAAAAAACAA [CACACA_site2626] | 9.84 ± 0.57
19 | AAATATTTATATGTTACACACTGTTTATAACTTTCT [CACACA_site6752] | 9.02 ± 0.41

Row | Sequence | gcPBM binding intensity (ln)
20 | TTTTTATCTTTGCTGTGTACATAAATAAAAATAACT [XGTACX_site7625] | 8.47 ± 0.42
21 | CTTCTGTAATTATCACGTACATATAATAATTAAAAT [XGTACX_site8973] | 8.55 ± 0.33
22 | CCTTTTTTTTTTTTATGTACTAAAATAAAATTAGAA [XGTACX_site5956] | 8.04 ± 0.47
23 | TTCTAAAATTATATAGTGCAATTATATTAATTTTTC | 8.43 ± 0.59
24 | ATAACAACCCAATGTTGTACATTTAAATATAACGTA [XGTACX_site7114] | 8.83 ± 0.45
25 | TATATATATTTATGTACACACACACCGATAAATAAA [CACACA_site4404] | 9.43 ± 0.22
26 | TATAACATATGACACACACACATACATACACAAAAA [CACACA_site6935] | 9.98 ± 0.17
27 | GCCTCATCGTAGCAGTGTACGTTTTTTTTTTTTTTT [XGTACX_site8648] | 8.92 ± 0.41
28 | TTTTATACATAAATATGTACGTATATATAATGAATT [XGTACX_site1337] | 8.6 ± 0.36
29 | ACAATTTATATTATATGTACTTAAAAAGTTCGTAAA [XGTACX_site6421] | 8.47 ± 0.27
30 | TTGTGTTTGAAAAAATGTACATGTGTCTTACAACAA [XGTACX_site8371] | 8.57 ± 0.44
31 | TTATACAGATATTTAACACACATTTTATAAAGTGCC [CACACA_site4851] | 8.9 ± 0.4
32 | AAAAATAAAAAAAATACATGCAATGAAACATTTATT [TGCATGCA_site263] | 8.65 ± 0.38
33 | TTACGCGCTTATTACACACACATACAAATAAGGATT [CACACA_site3486] | 9.36 ± 0.3
34 | AACAAAATAAAAAAAACATGCAAGAATTCTTATATG [TGCATGCA_site714] | 8.82 ± 0.49
35 | ATTTGTATTGTATATGCACACATAGAACACTTTTTT [CACACA_site9373] | 9.18 ± 0.39
36 | ATATATATAATATAATGTACATATATTTTATTTTTA [XGTACX_site3819] | 8.54 ± 0.4
37 | AAAGCACCCAAGAATACACACAAATATTATAAAAAA [CACACA_site111] | 9.21 ± 0.44
38 | ATATATTAATTTAATTGTACGAATAAAAAAAAAAAA [XGTACX_site223] | 8.4 ± 0.38

Row | Sequence | gcPBM binding intensity (ln)
39 | TATATACATTTATGTACACACACATATATGTATATT [CACACA_site8971] | 9.37 ± 0.3
40 | ACGTATTAGATAAATACACACACAAGCATATATTTT [CACACA_site9135] | 9.41 ± 0.3
41 | TAATGTATTATATTTAGTACATATAAAAATAATTTT [XGTACX_site6886] | 8.4 ± 0.4
42 | AGATTCAAAAATAAAACATGCAAAAATAAAACGTGC [TGCATGCA_site501] | 9.03 ± 0.45
43 | TAATAAATGGCTAGTTGTACAGAAATATAAATATTA [XGTACX_site4579] | 8.62 ± 0.46
44 | ATATATATTGTACTAGTGCATATATATACATATATT | 8.98 ± 0.3
45 | ATAAATAAAAACACAAAACAAAACAAAACAAAACAA [CACACA_negctrl_site1257] | 8.82 ± 0.4
46 | TTTCATCTATATGAAACACACAAAGGAAAAAAAATT [CACACA_site7869] | 8.71 ± 0.35
47 | TAATACCATTGTCATGCATGCACATTATTACTCTAA [TGCATGCA_site160] | 8.99 ± 0.35
48 | TCGTAATTTTTTTTTATATATTAGGAATTTATAAAA [XGTACX_negctrl_site409] | 8.04 ± 0.42
49 | ATATTATATTTCTTTTGTACATATTATATAATATAT [XGTACX_site7198] | 9.05 ± 0.36
50 | TTTTTTTTGTGTATTTGTACATAATATATATATATA [XGTACX_site7092] | 8.88 ± 0.49
51 | AAAATTGTTATTTTATGTACTTATATTTATTTATTT [XGTACX_site3478] | 8.77 ± 0.43
52 | AAAAGGTATGTTATACATAGATATGCACATATATGT [TGCATGCA_negctrl_site96] | 8.94 ± 0.45
53 | GTAGGATTTTCTTTTGTGCGCAATATAAAAAGAAAA [GTGCAC_site9514] | 8.66 ± 0.43
54 | ATTAATATAAAAAGGTAAATGGATGTAATATATATA [XGTACX_negctrl_site2] | 8.76 ± 0.45
55 | TGAACACGCACAAATACACACAAAAAAAATAAATAA [CACACA_site6257] | 9.31 ± 0.49
56 | CCATTAAGACACATTGCACACGTGCACCCATAGAAA [CACACA_site4388] | 9.13 ± 0.35
57 | AAAAAAAAATTAAAAACACACATATAAATAAATATA [CACACA_site6845] | 8.76 ± 0.54
